The results in this text go back to patent US20250092151A1 (ALTRUBIO, published 2025).

The labels stand for the following.
T1: human P-selectin glycoprotein ligand-1 (PSGL-1), expressed on Sp2/0-hPSGL-1 cells (human, UniProt Q14242 42-412)
T1 construct: Sp2/0 cells transfected with human PSGL-1; also called human PSGL-1; SELPLG
T1 sequence: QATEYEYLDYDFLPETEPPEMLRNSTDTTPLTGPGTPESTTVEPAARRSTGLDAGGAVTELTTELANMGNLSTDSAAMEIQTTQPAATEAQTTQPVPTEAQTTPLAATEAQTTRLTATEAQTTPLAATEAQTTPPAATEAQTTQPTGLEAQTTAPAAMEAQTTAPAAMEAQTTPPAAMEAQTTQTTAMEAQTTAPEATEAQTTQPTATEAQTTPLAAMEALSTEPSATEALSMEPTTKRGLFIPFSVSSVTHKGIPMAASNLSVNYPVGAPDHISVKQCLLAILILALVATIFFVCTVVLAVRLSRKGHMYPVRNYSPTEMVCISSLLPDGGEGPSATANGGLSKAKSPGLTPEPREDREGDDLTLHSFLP

B1: h15A7H V4-V2-g4pFc (antibody, human IgG4 S228P)
chain: DIQMTQSPSSLSASVGDRVTITCRSSQSIVHNDGNTYFEWYQQKPGKAPKLLIYKVSNRFSGVPSRFSGSGSGTHFTLTISSLQPEDFATYYCFQGSYVPLTFGCGTKVEIKGGGGSGGGGSGGGGSGGGGSGGGGSEVQLVESGGGLVQPGGSLRLSCAASGFTFSSFGMHWVRQAPGKCLEWVAYINGGSSTIFYANAVKGRFTISRDNAKNTLYLQMNSLRAEDTAVYYCARYASYGGGAMDYWGQGTLVTVSSASTGSEVQLVESGGGLVQPGGSLRLSCAASGFTFSSFGMHWVRQAPGKCLEWVAYINGGSSTIFYANAVKGRFTISRDNAKNTLYLQMNSLRAEDTAVYYCARYASYGGGAMDYWGQGTLVTVSSGGGGSGGGGSGGGGSGGGGSGGGGSDIQMTQSPSSLSASVGDRVTITCRSSQSIVHNDGNTYFEWYQQKPGKAPKLLIYKVSNRFSGVPSRFSGSGSGTHFTLTISSLQPEDFATYYCFQGSYVPLTFGCGTKVEIKGGGGSAAA[omitted - human IgG4 Fc with S228P (EU numbers)]
notes: Tetravalent: a dimer of two tandem scFv units (v4 VL-VH then v2 VH-VL, both disulfide-constrained), each fused to human IgG4 Fc with the hinge mutation; also called taFv2-Fc (v4-v2)
B2: h15A7H V2-V3-g4pFc (antibody, human IgG4 S228P)
chain: EVQLVESGGGLVQPGGSLRLSCAASGFTFSSFGMHWVRQAPGKCLEWVAYINGGSSTIFYANAVKGRFTISRDNAKNTLYLQMNSLRAEDTAVYYCARYASYGGGAMDYWGQGTLVTVSSGGGGSGGGGSGGGGSGGGGSGGGGSDIQMTQSPSSLSASVGDRVTITCRSSQSIVHNDGNTYFEWYQQKPGKAPKLLIYKVSNRFSGVPSRFSGSGSGTHFTLTISSLQPEDFATYYCFQGSYVPLTFGCGTKVEIKASTGSDIQMTQSPSSLSASVGDRVTITCRSSQSIVHNDGNTYFEWYQQKPGKAPKLLIYKVSNRFSGVPSRFSGSGSGTHFTLTISSLQPEDFATYYCFQGSYVPLTFGQGTKVEIKGGGGSGGGGSGGGGSGGGGSGGGGSEVQLVESGGGLVQPGGSLRLSCAASGFTFSSFGMHWVRQAPGKGLEWVAYINGGSSTIFYANAVKGRFTISRDNAKNTLYLQMNSLRAEDTAVYYCARYASYGGGAMDYWGQGTLVTVSSGGGGSAAA[omitted - human IgG4 Fc with S228P (EU numbers)]
notes: Tetravalent: a dimer of two tandem scFv units (v2 VH-VL, disulfide-constrained, then v3 VL-VH), each fused to human IgG4 Fc with the hinge mutation; also called taFv2-Fc (v2-v3)
B3: h15A7H LH10-g4pFc (antibody, human IgG4 S228P)
chain: DIQMTQSPSSLSASVGDRVTITCRSSQSIVHNDGNTYFEWYQQKPGKAPKLLIYKVSNRFSGVPSRFSGSGSGTHFTLTISSLQPEDFATYYCFQGSYVPLTFGQGTKVEIKGGGGSGGGGSEVQLVESGGGLVQPGGSLRLSCAASGFTFSSFGMHWVRQAPGKGLEWVAYINGGSSTIFYANAVKGRFTISRDNAKNTLYLQMNSLRAEDTAVYYCARYASYGGGAMDYWGQGTLVTVSSGGGGSGGGGSGGGGSGGGGSGGGGSDIQMTQSPSSLSASVGDRVTITCRSSQSIVHNDGNTYFEWYQQKPGKAPKLLIYKVSNRFSGVPSRFSGSGSGTHFTLTISSLQPEDFATYYCFQGSYVPLTFGQGTKVEIKGGGGSGGGGSEVQLVESGGGLVQPGGSLRLSCAASGFTFSSFGMHWVRQAPGKGLEWVAYINGGSSTIFYANAVKGRFTISRDNAKNTLYLQMNSLRAEDTAVYYCARYASYGGGAMDYWGQGTLVTVSSGGGGSAAA[omitted - human IgG4 Fc with S228P (EU numbers)]
notes: Tetravalent: a dimer of two single-chain diabodies (VL-VH-VL-VH), each fused to human IgG4 Fc with the hinge mutation; also called scDb2-Fc

In one test the target is T1, human P-selectin glycoprotein ligand-1 …. Description: flow cytometry on Sp2/0-hPSGL-1 cells, antibody at 0.1 µg/mL. The method, then: (§1) Sp2/0 cells transfected with human PSGL-1 (Sp2/0-hPSGL1) were used as the PSGL-1 expressing cell line. Sp2/0-hPSGL1 cells were centrifuged at 1200 rpm for 5 min. The cell pellets were resuspended in FACS buffer (PBS containing 1% FBS) and pipetted into 96 well plate (1×10⁵ cells/well). To each well was added 100 μl of supernatants containing humanized 15A7H (h15A7H)/tetravalent antibodies, and these were incubated for 60 min at 4° C. The cells were washed three times with cold FACS buffer and then incubated with 100 μl of Mouse Anti-Human IgG₄ pFc′-PE (SouthernBiotech Cat. no. 9190-09) at 1 μg/ml concentration for 60 min at 4° C. Subsequently, the cells were washed three times with cold FACS buffer and analyzed by FACS analysis. All flow cytometric analyses were performed on a BD-LSR flow cytometer (Becton Dickinson) using the Cell Quest software.
(§2) The binding ability of h15A7H tetravalent antibodies was evaluated in human PSGL-1 SP2/O cells. The h15A7H tetravalent antibody bound positively to the SP2/O-hPSGL-1, but not to parental SP2/O cell lacking of hPSGL-1 antigen (Table A below). Additionally, wild type h15A7H and all of h15A7H tetravalent antibodies gave similar binding activity on SP2/O-hPSGL-1 (Table A).
Background: Flow cytometry measures light scatter and fluorescence of single cells or particles in a stream.
The molecule B1 gave a mean fluorescence intensity of 3950 MFI.

For the molecule B2, the mean fluorescence intensity is 3160 MFI.

B3 yielded a mean fluorescence intensity of 2900 MFI.

For the next test the target is unchanged. Description: flow cytometry on Sp2/0-hPSGL-1 cells, antibody at 0.3 µg/mL. Here is the method: as §1, §2
The molecule B1 displayed a mean fluorescence intensity of 6450 MFI.

B2 registered a mean fluorescence intensity of 5730 MFI.

For B3, the mean fluorescence intensity stood at 5410 MFI.

For a further test the target is unchanged. The test can be described thus: cell-based or functional assay.
Consider B1, for which the “Apoptosis % (background subtracted, n = 4), mean, at 0.0625 µg/mL, SP2/O-hPSGL-1 cells, Annexin V/PI” value amounted to 0.5% and the “Apoptosis % (background subtracted, n = 4), mean, at 0.5 µg/mL, SP2/O-hPSGL-1 cells, Annexin V/PI” value came to 30%.

For the molecule B2, the “Apoptosis % (background subtracted, n = 4), mean, at 0.0625 µg/mL, SP2/O-hPSGL-1 cells, Annexin V/PI” value amounted to 13.5% and the “Apoptosis % (background subtracted, n = 4), mean, at 0.5 µg/mL, SP2/O-hPSGL-1 cells, Annexin V/PI” value is 26.5%.

Take B3: the “Apoptosis % (background subtracted, n = 4), mean, at 0.0625 µg/mL, SP2/O-hPSGL-1 cells, Annexin V/PI” value turned out to be 11.8% and the “Apoptosis % (background subtracted, n = 4), mean, at 0.5 µg/mL, SP2/O-hPSGL-1 cells, Annexin V/PI” value came out at 26.8%.

The target is the same in another test. Description: flow cytometry on Sp2/0-hPSGL-1 cells, antibody at 1 µg/mL. Here is the method:
as §1, §2
Turning to B1, the mean fluorescence intensity worked out at 6780 MFI.

Regarding B2, the mean fluorescence intensity is 6260 MFI.

Consider B3, for which the mean fluorescence intensity came out at 6680 MFI.

For a further test the target is unchanged. The test can be described thus: flow cytometry on Sp2/0-hPSGL-1 cells, antibody at 3 µg/mL. The method, then: as §1, §2
As for B1, the mean fluorescence intensity was found to be 4920 MFI.

Regarding B2, the mean fluorescence intensity is 4540 MFI.

Turning to B3, the mean fluorescence intensity was 4630 MFI.
